# Lines with a small IC50 respond at low doses; a fit beyond the top or the lowest dose is shown as a bound at that dose. AUC, from the same fit, is the share of area under the viability curve across the 256-fold dose range: 1 means no effect, lower means more sensitive. For some assays here: Any top dose called inferred comes from the curve model; the source does not state it. For some assays here: An entry number marks a drug with two screens in the source, which often give different values.
# Columns and labels:
# Experiment in all cases: Viability of human cancer cell lines after 72 h of drug (GDSC screen)
# SB-505124 = compound: Cc1cccc(-c2[nH]c(C(C)(C)C)nc2-c2ccc3c(c2)OCO3)n1 [SB-505124]; conditions: top dose 10 µM; top dose inferred
# Protocol: (§1)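 Human cancer cell lines in 384-well plates, medium with 10% serum, drug for 72 h over a 256-fold dose range (nine 2-fold or five 4-fold steps up to the top dose). Adherent lines were fixed and stained with the nucleic acid dye Syto60, suspension lines read with resazurin; signal relative to control wells, capped at 0 and 100%. One two-parameter sigmoid per drug and line, fitted in a mixed model over all curves with the slope shared within a line.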
# PI-103 = compound: Oc1cccc(-c2nc(N3CCOCC3)c3oc4ncccc4c3n2)c1 [PI-103]; conditions: top dose 10.24 µM
# Protocol: as §1
# BX-795 = compound: O=C(NCCCNc1nc(Nc2cccc(NC(=O)N3CCCC3)c2)ncc1I)c1cccs1 [BX-795]; conditions: top dose 5 µM; top dose inferred
# Protocol: as §1
# WH-4-023 = compound: COc1ccc(N(C(=O)Oc2c(C)cccc2C)c2ccnc(Nc3ccc(N4CCN(C)CC4)cc3)n2)c(OC)c1 [WH-4-023]; conditions: top dose 5.12 µM; top dose inferred
# Protocol: as §1
# GSK690693 = compound: CCn1c(-c2nonc2N)nc2c(C#CC(C)(C)O)ncc(OC[C@H]3CCCNC3)c21 [GSK690693]; conditions: top dose 10.24 µM; top dose inferred
# Protocol: as §1
# UNC0638 = compound: COc1cc2c(NC3CCN(C(C)C)CC3)nc(C3CCCCC3)nc2cc1OCCCN1CCCC1 [UNC0638]
# Protocol: as §1
# Tretinoin = compound: CC1=C(/C=C/C(C)=C/C=C/C(C)=C/C(=O)O)C(C)(C)CCC1 [Tretinoin]; conditions: top dose 10 µM; top dose inferred
# Protocol: as §1
# [1] = top dose 20 µM, screen: GDSC drug entry 1236, top dose inferred
# [2] = top dose 40 µM, screen: GDSC drug entry 245
Cell Line,AUC (SB-505124),IC50 (SB-505124) [µM],AUC (PI-103),IC50 (PI-103) [µM],AUC (BX-795),IC50 (BX-795) [µM],AUC (WH-4-023),IC50 (WH-4-023) [µM],AUC (GSK690693),IC50 (GSK690693) [µM],AUC (UNC0638; [1]),IC50 (UNC0638; [1]) [µM],AUC (UNC0638; [2]),IC50 (UNC0638; [2]) [µM],AUC (Tretinoin),IC50 (Tretinoin) [µM]
"NAMALWA (Burkitt lymphoma, suspension)",0.986,> 10,0.145,0.0659,0.969,> 5,0.909,> 5.12,0.68,1.85,0.792,7.52,0.669,6.8,0.981,> 10
"NB1 (neuroblastoma, semi-adherent)",0.955,> 10,0.863,> 10.2,0.931,> 5,0.951,> 5.12,0.921,> 10.2,0.832,14.7,0.721,11.4,0.973,> 10
"NB5 (neuroblastoma, adherent)",0.977,> 10,0.831,6.61,0.796,2.37,0.981,> 5.12,0.982,> 10.2,0.94,> 20,0.883,> 40,0.912,> 10
"NB6 (neuroblastoma, adherent)",0.981,> 10,0.382,0.28,0.811,3.44,0.734,1.76,0.899,> 10.2,0.978,> 20,0.807,26.4,0.982,> 10
"NB10 (neuroblastoma, adherent)",0.978,> 10,0.791,4.48,0.882,> 5,0.985,> 5.12,0.983,> 10.2,0.983,> 20,0.859,31.8,0.88,9.99
"NB13 (neuroblastoma, adherent)",0.99,> 10,0.857,6.85,0.871,3.8,0.946,> 5.12,0.99,> 10.2,0.967,> 20,0.822,19.9,0.35,0.254
"NB14 (neuroblastoma, adherent)",0.958,> 10,0.916,> 10.2,0.668,0.891,0.978,> 5.12,0.988,> 10.2,0.823,10.9,0.989,> 40,0.918,> 10
"NB(TU)1-10 (neuroblastoma, adherent)",0.993,> 10,0.963,> 10.2,0.992,> 5,0.98,> 5.12,0.993,> 10.2,0.993,> 20,0.639,5.72,0.985,> 10
"NCI-H23 (lung adenocarcinoma, adherent)",0.985,> 10,0.978,> 10.2,0.894,> 5,0.985,> 5.12,0.954,> 10.2,0.778,8.03,0.956,> 40,0.939,> 10
"NCI-H69 (small cell lung carcinoma, suspension)",0.956,> 10,0.521,0.736,0.892,> 5,0.983,> 5.12,0.861,> 10.2,0.732,6.24,0.96,> 40,0.984,> 10
"NCI-H82 (small cell lung carcinoma, suspension)",0.965,> 10,0.782,4.05,0.741,1.47,0.972,> 5.12,0.98,> 10.2,0.817,10.4,0.845,26.5,0.981,> 10
"NCI-H187 (small cell lung carcinoma, suspension)",0.983,> 10,0.569,1,0.887,> 5,0.987,> 5.12,0.815,6.22,0.981,> 20,0.596,4.7,0.988,> 10
"NCI-H209 (small cell lung carcinoma, suspension)",0.977,> 10,0.783,4.65,0.852,4.3,0.982,> 5.12,0.934,> 10.2,0.791,9.74,0.974,> 40,0.952,> 10
"NCI-H211 (small cell lung carcinoma, adherent)",0.962,> 10,0.243,0.119,0.834,3.13,0.929,> 5.12,0.978,> 10.2,0.739,5.9,0.575,3.99,0.964,> 10
"NCI-H226 (lung squamous cell carcinoma, adherent)",0.986,> 10,0.831,6.93,0.896,> 5,0.871,> 5.12,0.987,> 10.2,0.834,13.9,0.699,9.39,0.965,> 10
"NCI-H322M (lung adenocarcinoma, suspension)",0.981,> 10,0.744,3.85,0.941,> 5,0.927,> 5.12,0.987,> 10.2,0.914,> 20,0.808,27,0.958,> 10

Cell Line,AUC (SB-505124),IC50 (SB-505124) [µM],AUC (PI-103),IC50 (PI-103) [µM],AUC (BX-795),IC50 (BX-795) [µM],AUC (WH-4-023),IC50 (WH-4-023) [µM],AUC (GSK690693),IC50 (GSK690693) [µM],AUC (UNC0638; [1]),IC50 (UNC0638; [1]) [µM],AUC (UNC0638; [2]),IC50 (UNC0638; [2]) [µM],AUC (Tretinoin),IC50 (Tretinoin) [µM]
"NCI-H345 (small cell lung carcinoma, suspension)",0.986,> 10,0.867,10.1,0.99,> 5,0.988,> 5.12,0.99,> 10.2,0.98,> 20,0.844,30.7,0.99,> 10
"NCI-H446 (small cell lung carcinoma, semi-adherent)",0.886,> 10,0.293,0.159,0.918,> 5,0.796,2.59,0.579,1.07,0.705,4.97,0.618,5.42,0.982,> 10
"NCI-H524 (small cell lung carcinoma, suspension)",0.811,4.61,0.442,0.452,0.772,1.73,0.99,> 5.12,0.92,> 10.2,0.799,8.45,0.843,24.1,0.967,> 10
"NCI-H526 (small cell lung carcinoma, suspension)",0.988,> 10,0.63,1.43,0.764,1.74,0.989,> 5.12,0.833,6.22,0.989,> 20,0.804,18.9,0.974,> 10
"NCI-H720 (lung carcinoid, suspension)",0.989,> 10,0.991,> 10.2,0.849,3.27,0.989,> 5.12,0.991,> 10.2,0.977,> 20,0.977,> 40,0.992,> 10
"NCI-H747 (large intestine, adherent)",0.942,> 10,0.363,0.245,0.933,> 5,0.81,3.43,0.777,5.07,0.73,6.62,0.702,10.6,0.979,> 10
"NCI-H847 (small cell lung carcinoma, adherent)",0.975,> 10,0.171,0.0855,0.871,3.26,0.984,> 5.12,0.885,7.55,0.845,10.6,0.797,14.9,0.986,> 10
"NCI-H1092 (small cell lung carcinoma, suspension)",0.976,> 10,0.846,7.59,0.949,> 5,0.983,> 5.12,0.918,> 10.2,0.968,> 20,0.802,19.8,0.987,> 10
"NCI-H1155 (large cell lung carcinoma, suspension)",0.984,> 10,0.912,10.2,0.858,3,0.988,> 5.12,0.98,> 10.2,0.99,> 20,0.982,> 40,0.973,> 10
"NCI-H1304 (small cell lung carcinoma, suspension)",0.986,> 10,0.474,0.541,0.973,> 5,0.988,> 5.12,0.855,9.16,0.903,> 20,0.909,> 40,0.952,> 10
"NCI-H1395 (lung adenocarcinoma, adherent)",0.973,> 10,0.705,2.97,0.925,> 5,0.922,> 5.12,0.946,> 10.2,0.765,9.7,0.764,19.2,0.969,> 10
"NCI-H1436 (small cell lung carcinoma, suspension)",0.948,> 10,0.844,8.88,0.943,> 5,0.985,> 5.12,0.87,> 10.2,0.798,11.1,0.605,5.06,0.985,> 10
"NCI-H1648 (lung adenocarcinoma, adherent)",0.939,> 10,0.442,0.44,0.929,> 5,0.559,0.467,0.928,> 10.2,0.937,> 20,0.832,27.8,0.831,6.91
"NCI-H1694 (small cell lung carcinoma, suspension)",0.97,> 10,0.816,5.63,0.876,4.91,0.977,> 5.12,0.966,> 10.2,0.964,> 20,0.721,10.5,0.96,> 10
"NCI-H1770 (non-small cell lung carcinoma, suspension)",0.991,> 10,0.992,> 10.2,0.921,> 5,0.991,> 5.12,0.992,> 10.2,0.99,> 20,0.874,30.9,0.988,> 10
"NCI-H1836 (small cell lung carcinoma, suspension)",0.967,> 10,0.561,0.956,0.959,> 5,0.957,> 5.12,0.961,> 10.2,0.949,> 20,0.769,16.5,0.972,> 10

# Source: the supplement of paper PMC4967469
